Measured values: PMC2289905 (The Journal of Cell Biology, 1991)

Target: the molecule itself
Assay: nonreducing SDS-PAGE with immunoblot

Protein	stoichiometry N
pre-pro-TGFbeta1 insertion mutant In170, cell-associated precursor (natural protein) not shown	2
pre-pro-TGFbeta1 insertion mutant In50, cell-associated precursor (natural protein) not shown	2
pre-pro-TGFbeta1, wild type, cell-associated precursor (natural protein) not shown	2
pre-pro-TGFbeta1 insertion mutant In154, cell-associated precursor (natural protein) not shown	2
